The test system of this assay is pro-trypsin-like F. oxysporum protease. Description: Processing of pro-trypsin-like F. oxysporum protease to active trypsin-like protease. As to conditions: pro-trypsin-like protease 100 ug/ml; within 1 hr. The protocol:
Activatable pro-trypsin-like F. oxysporum protease is determined in microtiter wells as released trypsin-like F. oxysporum protease (tryptic) activity from pro-trypsin-like F. oxysporum protease after a 40 minute pre-incubation at room temperature with purified Fusarium oxysporum metalloprotease (approximately 6 ug).
Processed pro-trypsin-like F. oxysporum protease(i.e. mature trypsin-like F. oxysporum protease) activity is determined directly from microtiter plates containing the pre-incubated metalloprotease/pro-trypsin-like F. oxysporum protease cocktail (total volume=100 microliters), and 100 microliters of substrate (87 mg/ml.L-BAPNA stock in DMSO diluted 50-fold in sample buffer). Again, active trypsin-like F. oxysporum protease is determined as an increase in absorbance at 405 nm immediately after L-BAPNA addition.
Purified pro-trypsin-like F. oxysporum protease is added to fresh A. oryzae fermentation broths containing the recombinant p45 metalloprotease (approximately 90 mg/L) and incubated for either 1, 2, or 3 hours at room temperature. Levels of pro-trypsin-like F. oxysporum protease in the incubation mixtures range from 100 ug/ml to 13 mg/ml. Therefore, under these conditions, the recombinant p45 metalloprotease can easily process 80-100% of the activatable pro-trypsin-like F. oxysporum protease within a 1 hour time period. […]

B1: B.s. Thermolysin: thermolysin / neutral metalloprotease from Bacillus stearothermophilus (B.s.) (protein, UniProt P43133 236-551, looked up)
Thermolysin: ITGTSTVGVGRGVLGDQKNINTTYSTYYYLQDNTRGNGIFTYDAKYRTTLPGSLWADADNQFFASYDAPAVDAHYYAGVTYDYYKNVHNRLSYDGNNAAIRSSVHYSQGYNNAFWNGSQMVYGDGDGQTFIPLSGGIDVVAHELTHAVTDYTAGLIYQNESGAINEAISDIFGTLVEFYANKNPDWEIGEDVYTPGISGDSLRSMSDPAKYGDPDHYSKRYTGTQDNGGVHINSGIINKAAYLISQGGTHYGVSVVGIGRDKLGKIFYRALTQYLTPTSNFSQLRAAAVQSATDLYGSTSQEVASVKQAFDAVGVK
In the case of B1, the “moles of pro-trypsin-like protease processed per mole of metalloprotease” value is on record as “one mole of the B.s. metalloprotease is required to process one mole of pro-trypsin-like F. oxysporum protease”.

(Values after patent US5807729A, “Metalloprotease having increased activity” (Novo Nordisk A/S, priority 1995, dated 1998).)
